# Laboratory results reported in PubChem BioAssay AID588342 (National Center for Advancing Translational Sciences (NCATS), 2011).
# The whole screen tested about 360,000 compounds, of which about 25,000 (6.9%) were called active. The inconclusive results got no clear call from the source; some entries with a clear call stand among them for comparison. The call rests on the fitted dose curve; in most records, active means well fitted inhibition curve with a large enough effect; inconclusive means small, poorly fitted or top-dose-only effect; inactive means flat fitted curve, though single readings scatter. Potencies beside an inconclusive call are fits to weak or partial responses and may not hold up.
# Target: Luciferin 4-monooxygenase (Photinus pyralis) (UniProt P08659)
# Assay: qHTS profiling assay for firefly luciferase inhibitor/activator using purifed enzyme and Km concentrations of substrates (counterscreen for miR-21 project); further: nearly all actives have a fitted effect of over 55% in size;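 on activity change, negative = inhibition: plate controls were vehicle for no effect and reference inhibitor for full effect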
# Conditions: purified FLuc, luminescence inhibition; activity change, negative = inhibition: at 57.5 µM (top of the series)
# Outline: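 Purified P. pyralis luciferase, 10 nM final, with Km-level 10 uM D-luciferin and 10 uM ATP in 50 mM Tris acetate pH 7.5, 10 mM Mg acetate, 0.01% Tween-20, 0.05% BSA; 6-point qHTS titration about 60 µM downward; luminescence read.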
# Potency means the concentration at half of the fitted maximal effect; tags describe the fitted curve by direction and shape.
# Chain of UniProt P08659 (P08659 whole entry, looked up): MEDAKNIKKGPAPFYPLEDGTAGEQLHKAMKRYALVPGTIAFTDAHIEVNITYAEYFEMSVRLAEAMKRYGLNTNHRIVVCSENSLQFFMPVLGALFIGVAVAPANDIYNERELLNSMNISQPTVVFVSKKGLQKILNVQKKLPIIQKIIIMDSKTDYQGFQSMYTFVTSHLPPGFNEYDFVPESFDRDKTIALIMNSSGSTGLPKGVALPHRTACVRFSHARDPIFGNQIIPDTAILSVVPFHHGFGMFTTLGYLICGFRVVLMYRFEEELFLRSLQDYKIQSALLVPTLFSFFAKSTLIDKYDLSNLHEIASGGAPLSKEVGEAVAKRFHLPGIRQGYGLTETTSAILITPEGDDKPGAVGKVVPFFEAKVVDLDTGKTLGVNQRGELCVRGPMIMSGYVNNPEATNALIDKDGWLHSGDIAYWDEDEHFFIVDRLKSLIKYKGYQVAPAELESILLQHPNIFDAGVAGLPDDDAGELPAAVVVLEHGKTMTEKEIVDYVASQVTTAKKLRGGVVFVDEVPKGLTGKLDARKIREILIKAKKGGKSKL
Compound,Potency,"activity change, negative = inhibition"
CC(C)(C)c1ccc(/C=N/NC(=S)Nc2cccnc2)cc1,"inconclusive: 19 µM [inhibitor, partial curve]",–
Cc1ccc(NCC(=O)N/N=C\c2cccc(O)c2)cc1,"inconclusive: 21.3 µM [inhibitor, single point]",–
Cc1ccc(NC(=O)c2nc3nccc(C)n3n2)c(C)c1,"inconclusive: 30.1 µM [inhibitor, partial curve, poor fit]",–
CCC(=O)N1N=C(c2ccc(NS(C)(=O)=O)cc2)CC1c1ccc(N(C)C)cc1 (stereo not given),"inconclusive: 30.1 µM [inhibitor, partial curve, poor fit]",–
CCN(CC(=O)Nc1ccc(NC(C)=O)cc1)C(=O)CN1C(=O)C2CCCCC2C1=O (stereo not given),"inconclusive: 30.1 µM [inhibitor, partial curve, poor fit]",–
Cn1c(CSc2nc3ccccc3n2C)nc2ccccc21,"inconclusive: 37.9 µM [inhibitor, partial curve, poor fit]",–
COc1cc(/C=C2\SC(N)=NC2=O)cc(OC)c1,"inconclusive: 21.3 µM [inhibitor, partial curve]",–
c1ccc2c(c1)oc1c(NCCN3CCOCC3)ncnc12,–,inactive: -12.1%
COc1ccccc1C(=O)Nc1cc2cc(Cl)ccc2oc1=O,"inconclusive: 1.51 µM [inhibitor, partial curve, poor fit]",–
CCN1CCN(CCC(=O)Nc2ccc(F)c(F)c2)CC1,–,inactive: 0.355%
Cc1ccc(C(=O)Cc2nc3ccccc3[nH]2)cc1,active: 6.01 µM,–
O=C(COc1ccc2ccccc2c1Br)Nc1ccncc1,active: 12 µM,–
COc1ccc([C@H]2[C@H](C(=O)C(C)(C)C)N3N=Cc4ccccc4C3[C@]23N=C(c2ccccc2)OC3=O)cc1OC (stereo not given in full),"inconclusive: 30.1 µM [inhibitor, partial curve, poor fit]",–
Cc1ccc(CNC(=O)c2ccc(CSCc3ccccc3C)o2)cc1,"inconclusive: 23.9 µM [inhibitor, partial curve, poor fit]",–
Cc1[nH]c2ccccc2c1/C=N/NC(N)=S,"inconclusive: 26.9 µM [inhibitor, partial curve, poor fit]",–
Cc1cc(N=Nc2ccc(Cl)cc2)cc(CN2CCOCC2)c1O,active: 16.9 µM,–
COc1ccc(-c2nc3ccc(NS(=O)(=O)c4ccc(Cl)cc4)cc3o2)cc1,"inconclusive: 13.5 µM [inhibitor, partial curve]",–
O=C(O)c1nc(-c2ccccc2)n(-c2cccc(C(F)(F)F)c2)n1,"inconclusive: 23.9 µM [inhibitor, partial curve, poor fit]",–
FC(F)(F)c1nc(SCc2ccc(Cl)cc2Cl)n[nH]1,"inconclusive: 37.9 µM [inhibitor, single point]",–
CCc1ccc([C@@H]2CC=C(C(=O)O)[C@H](c3ccc(F)cc3)N2S(=O)(=O)c2ccc(C)cc2)cc1,–,inactive: -0.852%
COc1ccc(-c2nc3scc(CCNS(=O)(=O)c4ccc(NC(C)=O)cc4)n3n2)cc1,"inconclusive: 37.9 µM [inhibitor, partial curve, poor fit]",–
CCOc1ccccc1N1CCN(C(=O)CNC(=O)c2ccccc2F)CC1,–,inactive: -1.78%
O=C(COc1ccc(Cl)cc1)Nc1nnc(-c2ccco2)o1,"inconclusive: 23.9 µM [inhibitor, partial curve, poor fit]",–
CCC(=O)Nc1ccc(NC(=O)c2ccccc2Cl)nc1,"inconclusive: 26.9 µM [inhibitor, partial curve, poor fit]",–

Compound,Potency,"activity change, negative = inhibition"
CCCn1c(NC(=O)c2cccc(C)c2C)nc2ccccc21,"inconclusive: 30.1 µM [inhibitor, single point]",–
Cc1nn(-c2ccc(F)cc2)c2nc(N)c(C#N)c(-c3ccc(O)c(O)c3)c12,"inconclusive: 37.9 µM [inhibitor, partial curve, poor fit]",–
Cc1ccc(-c2cc(-c3ccc(F)cc3)c(C#N)c(N)n2)o1,"inconclusive: 16.9 µM [inhibitor, partial curve, poor fit]",–
Cc1cccc(OCCn2c(SCC(=O)O)nc3ccccc32)c1,"inconclusive: 33.8 µM [inhibitor, partial curve, poor fit]",–
CCOc1ccc(N(CC)S(=O)(=O)N2CCCC(C(=O)Nc3cc(Cl)ccc3OC)C2)cc1 (stereo not given),–,inactive: 3.07%
CCc1nc2cc3sc(CC)nc3cc2s1,active: 8.49 µM,–
CCc1ccc(OCCn2cccn2)cc1,"inconclusive: 21.3 µM [inhibitor, partial curve, poor fit]",–
Cc1ccc(Nc2c(-c3ccco3)nc3ccccn23)cc1,"inconclusive: 19 µM [inhibitor, partial curve]",–
COc1ccc(OC)c(/C=N/Nc2nncn2/N=C/c2cc(OC)ccc2OC)c1,active: 15.1 µM,–
COc1ccc(-c2c(-c3ccccc3OC)oc3ccccc23)cc1F,"inconclusive: 26.9 µM [inhibitor, partial curve, poor fit]",–
CCCc1ccc(OC(=O)c2ccc(O)cc2Cl)cc1,active: 2.39 µM,–
c1ccc(CN2CCN(c3ncccn3)CC2)cc1,–,inactive: 2.49%
Cc1ccsc1C(=O)OCC(=O)c1cc2ccccc2o1,active: 5.36 µM,–
C=C(C)Cn1c(=O)c2c(nc3n2CCN3c2ccc(F)cc2)n(C)c1=O,"inconclusive: 13.5 µM [inhibitor, partial curve]",–
CCOC(=O)c1ccc(NC(=O)c2nc[nH]c2C(=O)N(C)Cc2ccccc2)cc1,"inconclusive: 30.1 µM [inhibitor, partial curve, poor fit]",–
Cc1cc(NC(=O)c2ccc(NC(=O)C3CCCO3)cc2)ccc1Br (stereo not given),"inconclusive: 23.9 µM [inhibitor, partial curve]",–
O=C(N1CCCCCC1)N1CCN(C(=O)N2CCOCC2)CC1,–,inactive: 3.75%
Cc1ccccc1Nc1cc(C(=O)NCc2cccs2)c2ccccc2n1,"inconclusive: 26.9 µM [inhibitor, single point]",–
CCCOC(=O)c1ccc(NC(=O)C(CC)CC)cc1,"inconclusive: 23.9 µM [inhibitor, single point]",–
CCCS(=O)(=O)N1CCCC(C(=O)NCCOC)C1 (stereo not given),–,inactive: 1.7%
Cc1cccc(N2CCN(C(=O)C3COc4ccccc4O3)CC2)c1C (stereo not given),"inconclusive: 26.9 µM [inhibitor, partial curve, poor fit]",–
O=C(COC(=O)c1nc(Cl)ccc1Cl)c1ccc(Cl)s1,"inconclusive: 21.3 µM [inhibitor, partial curve, poor fit]",–
CCOC(=O)CSc1ncnc2c(C(=O)OCC)c3n(c12)CCC3,"inconclusive: 26.9 µM [inhibitor, partial curve, poor fit]",–
Cn1c(SCc2ccc(F)cc2)nnc1-c1ccccn1,"inconclusive: 16.9 µM [inhibitor, partial curve]",–

Compound,Potency,"activity change, negative = inhibition"
Cc1ccc(/C=C/C(=O)NC(=S)N2CCN(C)CC2)cc1,"inconclusive: 21.3 µM [inhibitor, partial curve]",–
O=C(COc1ccc(C(=O)c2ccccc2)cc1)NCC(=O)Nc1ccccc1Br,–,inactive: -2.26%
COc1ccccc1NC(=O)CCC(=O)N(Cc1ccc(OC)c(OC)c1)c1nccs1,"inconclusive: 26.9 µM [inhibitor, partial curve, poor fit]",–
COc1ccc(NC(=O)c2c(NC(=O)CCC(=O)O)sc(-c3ccccc3)c2C)cc1,"inconclusive: 37.9 µM [inhibitor, single point]",–
N=c1oc2ccc(Br)cc2cc1C(=O)NCc1ccccc1,–,inactive: -0.845%
Cc1ccc(-c2nc(Nc3cccc(C)c3)sc2CC(=O)O)cc1,"inconclusive: 16.9 µM [inhibitor, partial curve]",–
COc1ccc(NC(=O)CNC(=O)Cn2c(C)cc3ccccc3c2=O)cc1OC,inactive,–
O=C(CSc1ccc(-c2ccccn2)nn1)c1ccc(F)cc1,"inconclusive: 23.9 µM [inhibitor, partial curve, poor fit]",–
O=c1ccc2ccc(OCc3nnc(-c4ccccc4Br)o3)cc2o1,"inconclusive: 15.1 µM [inhibitor, partial curve, poor fit]",–
Cc1ccc2nc(-c3cccc(N)c3)oc2c1,active: 0.213 µM,–
O=C(Nc1nnc(-c2cccnc2)s1)c1cccs1,active: 12 µM,–
COc1ccc(OC)c(NC(=O)c2cc(OC(C)=O)cc(C(=O)Nc3cc(OC)ccc3OC)c2)c1,–,inactive: 2.77%
O=C(NCc1ccccc1)Nc1cccn(Cc2ccccc2)c1=O,active: 10.7 µM,–
COc1cccc(-c2ccc3ncnc(NCc4cccnc4)c3c2)c1,–,inactive: -2.98%
CCN1C(=O)c2cccc3c(NC(=O)c4ccc(S(=O)(=O)N(C)C)cc4)ccc1c23,–,inactive: -8.16%
CCOC(=O)CSc1nc2c(sc(=S)n2-c2ccccc2)c(=O)n1-c1ccc(OC)cc1OC,"inconclusive: 23.9 µM [inhibitor, partial curve, poor fit]",–
Cc1ccc(-c2nnc(COC(=O)c3ccco3)o2)cc1,active: 13.5 µM,–
Cc1cc2ncc(-c3ccc(Cl)cc3)cn2n1,active: 2.69 µM,–
CCOC(=O)c1c(C)[nH]c(C)c1C(=O)COC(=O)/C=C/c1ccc(OC)cc1,"inconclusive: 26.9 µM [inhibitor, partial curve, poor fit]",–
CCN(c1ccccc1)S(=O)(=O)c1ccc(C(=O)Oc2ccc(C(C)=O)cc2)cc1,–,inactive: -4.2%
O=C1NC(=O)C(Cc2cccc(Oc3ccccc3)c2)S1 (stereo not given),"inconclusive: 37.9 µM [inhibitor, partial curve, poor fit]",–
Cc1ccc(NS(=O)(=O)c2ccc3c(c2)c(=O)n(C)c(=O)n3C)cc1F,–,inactive: 3.1%
